# The whole screen tested about 310,000 compounds, of which about 2,200 (0.71%) showed an effect of 50% or more. Effects have a minus sign here. The list shows a part of the results.
# Target: human ether-à-go-go-related gene (hERG) potassium channel (human, UniProt Q12809)
# Test: primary screen, population patch clamp on CHO cells stably expressing hERG
# Chain of human ether-à-go-go-related gene (hERG) potassium channel (Q12809 whole entry, looked up): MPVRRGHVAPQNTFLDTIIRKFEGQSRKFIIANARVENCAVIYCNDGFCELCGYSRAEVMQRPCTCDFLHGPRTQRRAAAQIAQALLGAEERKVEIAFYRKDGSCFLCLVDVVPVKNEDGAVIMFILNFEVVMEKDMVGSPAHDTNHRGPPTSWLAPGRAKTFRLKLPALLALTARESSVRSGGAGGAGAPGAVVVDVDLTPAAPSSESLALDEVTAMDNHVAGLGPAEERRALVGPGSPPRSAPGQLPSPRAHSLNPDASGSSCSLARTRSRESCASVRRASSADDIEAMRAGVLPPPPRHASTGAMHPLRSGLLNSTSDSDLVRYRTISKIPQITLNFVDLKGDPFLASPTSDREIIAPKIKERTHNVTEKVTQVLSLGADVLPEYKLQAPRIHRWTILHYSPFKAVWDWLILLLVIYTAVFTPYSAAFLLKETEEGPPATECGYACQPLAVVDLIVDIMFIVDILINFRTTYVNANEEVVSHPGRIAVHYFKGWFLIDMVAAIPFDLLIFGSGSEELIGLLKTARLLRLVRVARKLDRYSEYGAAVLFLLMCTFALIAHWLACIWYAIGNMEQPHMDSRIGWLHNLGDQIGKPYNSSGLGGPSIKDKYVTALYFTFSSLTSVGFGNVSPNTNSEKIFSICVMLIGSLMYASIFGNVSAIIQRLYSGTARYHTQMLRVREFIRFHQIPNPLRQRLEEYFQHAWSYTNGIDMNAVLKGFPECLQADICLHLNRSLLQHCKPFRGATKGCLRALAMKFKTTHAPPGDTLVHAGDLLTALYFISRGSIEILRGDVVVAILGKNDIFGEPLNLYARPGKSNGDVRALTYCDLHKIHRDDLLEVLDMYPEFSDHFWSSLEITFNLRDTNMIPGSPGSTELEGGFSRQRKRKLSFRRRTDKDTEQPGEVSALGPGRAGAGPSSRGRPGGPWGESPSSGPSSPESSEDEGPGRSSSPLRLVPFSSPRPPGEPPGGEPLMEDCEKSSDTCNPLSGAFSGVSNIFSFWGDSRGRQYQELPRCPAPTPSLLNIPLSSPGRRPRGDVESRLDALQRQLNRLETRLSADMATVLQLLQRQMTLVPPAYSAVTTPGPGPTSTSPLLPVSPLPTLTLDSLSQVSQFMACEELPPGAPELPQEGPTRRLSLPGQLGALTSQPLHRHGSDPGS
row,Compound,"hERG current change (%, negative = inhibition) at 1uM [%]"
1,Cc1ccc2oc(C(=O)N3CCCCCC3)c(C)c2c1,13.2
2,Fc1ccc(Nc2nc(Oc3ccc4c(c3)OCO4)nc(N3CCOCC3)n2)c(F)c1,14.6
3,CCNc1nc2c(c(=O)[nH]c(=O)n2C)n1Cc1ccc(F)cc1,14.6
4,CCCNC(=O)/C(C#N)=C1\N=C(NC(=O)c2ccco2)c2ccccc21,11.6
5,CC(=O)C1=C(C)Nc2ncnn2C1c1cccc(OCc2ccccc2)c1 (centres unmarked),8.1
6,CCCCCn1c(N)c(C(=O)NCCN2CCOCC2)c2nc3ccccc3nc21,-0.506
7,O=C(NCc1ccccc1)c1ccc2c(c1)C(=O)N(CC1CCCO1)C2=O (centres unmarked),-8.09
8,Cc1cc(C)c2oc(=O)cc(CN3CCCCC3)c2c1,13.9
9,CN(C)c1ccc(/C=N/N(CCC(=O)NC(C)(C)C)C2=NS(=O)(=O)c3ccccc32)cc1,14.9
10,COC(CN(C(=O)CCl)C(C(=O)NC1CCCCC1)c1ccc(C)cc1)OC (centres unmarked),0.13
11,COCCN(C(=O)COC(=O)C1(C)CC1(Cl)Cl)c1c(N)n(Cc2ccccc2)c(=O)[nH]c1=O (centres unmarked),13.6
12,COc1ccc(NC(=O)CSc2nnc3n2CCCCC3)cc1S(=O)(=O)N1CCOCC1,-2.19
13,O=C(COC(=O)c1ccc(Br)cc1)NCCc1ccccc1,13.3
14,COc1ccccc1C(=O)COC(=O)Cc1c[nH]c2ccccc12,-14.8
15,COc1cc(/C=C/C(=O)OC(C)C(=O)NC2CCCCC2C)cc(Cl)c1OC (centres unmarked),11.4
16,CC(=O)N1[C@H](Cc2ccccc2)C=C[C@]1(C)C(=O)NCc1ccc(C)o1,13.5
17,CC(C)OCC(O)CN1CCC(Cc2ccccc2)CC1.Cl (centres unmarked),-2.15
18,COC(=O)c1ccc(NC(=O)CN2C(=O)CC(C)S(=O)(=O)c3ccccc32)cc1 (centres unmarked),12.2
19,Cc1nc2ccc(Nc3nc4cc(S(=O)(=O)N5CCOCC5)ccc4o3)cc2s1,7.29
20,Cc1cc(Cl)ccc1NC(=S)NCCCN1CCCC1=O,9
21,Cc1ccc(S(=O)(=O)N(CC(=O)NCc2ccco2)C2CCCCC2)cc1,0.77
22,O=C(c1ccncc1)N1CCN(c2ccc(F)cc2)CC1,8.94
23,Cn1c(=O)c2[nH]c(Nc3ccccc3)nc2n(C)c1=O,3.11

row,Compound,"hERG current change (%, negative = inhibition) at 1uM [%]"
1,O=S(=O)(NCCC(c1ccc(F)cc1)c1ccco1)c1ccccc1 (centres unmarked),1.58
2,COc1ccc(C(=O)N2CCN(c3ccccc3OC)CC2)cc1,0.513
3,COc1cccc(NC(=S)/C(=C(\[O-])c2ccc(C)c([N+](=O)[O-])c2)[n+]2ccccc2)c1,1.28
4,Cn1c(SCC(=O)Nc2ccc(NC(=O)c3cccc(F)c3)cc2)nnc1-c1ccncc1,18.5
5,c1cc2c3c(cccc3c1)NC1(CCCCCC1)N2,5.4
6,Cc1ccc(S(=O)(=O)N(CC(O)CN2C(=O)NC(C)(C)C2=O)c2cccc([N+](=O)[O-])c2)cc1 (centres unmarked),10.7
7,CCNC(=O)NC(=O)COC(=O)c1cccc(S(=O)(=O)N2CC3(C)CC2CC(C)(C)C3)c1 (centres unmarked),4.71
8,O=C(NCCS(=O)(=O)NC1CCCC1)c1ccccc1,3.74
9,CCCNC(=O)COc1coc(CN2CCN(Cc3ccccc3)CC2)cc1=O,15.2
10,COc1cccc(OC)c1C(=O)NC(=S)Nc1cc(-c2nc3ccccc3[nH]2)ccc1Cl,3.68
11,CN1CCN(c2ncnc3sc(-c4ccccc4)cc23)CC1,-6.7
12,CCOCCCNC(=O)c1cc2c(s1)-c1ccccc1SC2,11.3
13,O=C(CSc1nccc(=O)[nH]1)Nc1ccc(F)c([N+](=O)[O-])c1,6.68
14,C/C(=N/NC(=O)CSc1nc2ccccc2n1C)c1ccco1,-2.8
15,COC(=O)[C@@H](N)Cc1ccc(O)cc1,17.1
16,COC(=O)CCc1n[nH]c(=O)[nH]c1=O,13.4
17,O=C(Nc1ncccc1O)c1ccc(S(=O)(=O)N2CCCCCC2)cc1,10.5
18,CCn1ccnc1CC1COc2ccccc2O1.Cl (centres unmarked),11.1
19,COC(=O)NC(Nc1sc2c(c1C(N)=O)CCCC2)(C(=O)OC)C(F)(F)F (centres unmarked),18.4
20,C[C@]1(C(=O)O)Cc2oncc2C[C@@H]1C(=O)O,9.66
21,COC(=O)c1ccc(Cl)c(S(=O)(=O)N2CCCC2)c1,9.5
22,Cc1cc(NC(=O)c2ccc3c(c2)C(=O)N(C2CCCCC2)C3=O)no1,5.87
23,COc1ccc(NC2CCCN(Cc3cccc4cnccc34)C2)cc1 (centres unmarked),7.78

row,Compound,"hERG current change (%, negative = inhibition) at 1uM [%]"
1,COc1ccccc1NC(=O)CCn1cccc1,9.24
2,CC(C)(C)C1CCc2c(C(=O)NNC(=O)CCC(=O)O)csc2C1 (centres unmarked),8.1
3,CC(=O)c1ccccc1OCCn1nc(C(=O)O)c2ccccc2c1=O,13.5
4,COc1ccc(CN(C)CC(=O)NC(=O)NCc2ccccc2)c(OC)c1,1.13
5,O=C(NCC1CCCO1)c1cccc(NC(=O)c2cccs2)c1 (centres unmarked),10.5
6,Cc1cccc2cc(CN(CC3CCCO3)C(=O)c3cccs3)c(=O)[nH]c12 (centres unmarked),12.7
7,CCOC(=O)c1c(C)nc2ccccn12,-9.94
8,C=CCOc1ccc(CN(C)C(=O)CN2C(=O)c3ccccc3C2=O)cc1,8.43
9,COCCSc1ccccc1C(=O)NCC1CCCO1 (centres unmarked),2.09
10,CN1CCN(c2nc(-c3ccccc3)ncc2S(C)(=O)=O)CC1,-0.369
11,CCOC(=O)c1c(S(=O)(=O)Nc2ccc(CN3CCC(C)CC3)cc2)c(C)n(C)c1C,11.1
12,O=C(COC(=O)c1ccccc1O)NCCC1=CCCCC1,15.7
13,Cc1cccc(NC(=O)c2cnn(C)c2)c1C,4.28
14,Br.COC(=O)c1ccc(OCCN2C3=NCCN3c3ccccc32)cc1,-56.5
15,C[N+]1(C)C2CC(OC(=O)[C@H](CO)c3ccccc3)CC1C1OC12.O=[N+]([O-])[O-] (some centres unmarked),14.6
16,COc1ccc(CCN2C(=O)NC(NS(=O)(=O)c3ccccc3)(C(F)(F)F)C2=O)cc1OC (centres unmarked),4.35
17,COc1ccc(S(=O)(=O)NCc2ccccn2)cc1NC(=O)c1ccc(Cl)cc1,-47.8
18,Cc1ccc(-c2nnc(SCC#CCOC(=O)c3cccs3)o2)cc1,14
19,COc1cc(NS(=O)(=O)c2c(C(=O)N3CCOCC3)c(C)n(C)c2C)cc(OC)c1OC,12.9
20,CCOc1ccc(-n2c(SCc3ccc([N+](=O)[O-])cc3)nnc2-c2ccccc2)cc1,1.7
21,O=C(COc1ncnc2ccc(Br)cc12)NCc1ccc2c(c1)OCO2,12.4
22,FC(F)(F)c1ccnc(NCc2ccco2)n1,11.1
23,Cc1cccc(NC(=O)C2CCCN(C(=O)NC3CCCCC3)C2)c1C (centres unmarked),4.4

row,Compound,"hERG current change (%, negative = inhibition) at 1uM [%]"
1,CCCN(CCC)C(=O)Cn1ccc(=N)c2ccccc21.Cl,2.79
2,Cc1ccc2cc(CCNC(=O)c3cc4ccccc4o3)c(=O)[nH]c2c1C,13.2
3,Cc1ccccc1N(C(=O)Cc1cccs1)C(C(=O)NC1CCCCC1)c1cn(C)nc1C (centres unmarked),-0.242
4,CNS(=O)(=O)c1cn(CC(=O)NCc2ccc(N(C)C)cc2)cc1S(=O)(=O)NC,5.9
5,O=C(c1cc(F)ccc1F)C1CCCN(Cc2ccc3nonc3c2)C1 (centres unmarked),5.51
6,COC(=O)CN1C(=O)C(O)(CC(=O)c2ccc(C)o2)c2ccccc21 (centres unmarked),14.6
7,CCc1c(C)sc(NC(=O)Cc2ccccc2C)c1C(=O)N1CCOCC1,6.9
8,O=C(CNS(=O)(=O)c1cccs1)NCCc1ccc(Cl)cc1,5.29
9,CC(C)(C)c1ccc(OCC(=O)NNC(=O)Cc2cccs2)cc1,6.45
10,CC(Oc1cccc(Cl)c1)C(=O)Nc1ccccc1N1CCCCC1 (centres unmarked),-1.02
11,Cc1nnc(SCC(=O)NNC(=O)c2ccccc2)n1-c1ccccc1,9.38
12,COc1ccc(C(=O)C2CN(C)CC2c2ccc(Cl)cc2)cc1 (centres unmarked),-18.3
13,COc1ccccc1NC(=O)C1=C(C)Nc2ncnn2C1c1ccc(C)o1 (centres unmarked),10.2
14,Cc1ccc(NC(=S)N(CCCN2CCCC2)Cc2cccn2Cc2ccc(Cl)cc2)cc1Cl,9.49
15,COC(=O)c1ccc(COC(=O)c2ccccc2OC)cc1,1.26
16,COc1cccc(N2CC(C(=O)Nc3nnc(SCC(=O)Nc4cc(C)on4)s3)CC2=O)c1 (centres unmarked),12
17,CCN(CC)S(=O)(=O)c1ccc2[nH]c(=O)c3ccccc3c2c1,9.43
18,Fc1cccc(Cl)c1CSc1nnc(COc2cccc3cccnc23)o1,9.42
19,CCOC(=O)C1C(c2ccccc2)NC(=S)NC1(C)O (centres unmarked),7.56
20,CCC(C)(C)c1ccc(OCCCC[n+]2ccc(C)cc2)c(C(C)(C)CC)c1.[Br-],-34.5
